# Experimental data: US8592383B2, “Cycloalkyl-fused tetrahydroquinolines as CRTH2 receptor modulators” (Merck Sharp & Dohme Corp., priority 2011, dated 2013)
# Target: T1, hCRTH2 (Homo sapiens, UniProt Q9Y5Y4)
# T1 sequence (Q9Y5Y4 1-395): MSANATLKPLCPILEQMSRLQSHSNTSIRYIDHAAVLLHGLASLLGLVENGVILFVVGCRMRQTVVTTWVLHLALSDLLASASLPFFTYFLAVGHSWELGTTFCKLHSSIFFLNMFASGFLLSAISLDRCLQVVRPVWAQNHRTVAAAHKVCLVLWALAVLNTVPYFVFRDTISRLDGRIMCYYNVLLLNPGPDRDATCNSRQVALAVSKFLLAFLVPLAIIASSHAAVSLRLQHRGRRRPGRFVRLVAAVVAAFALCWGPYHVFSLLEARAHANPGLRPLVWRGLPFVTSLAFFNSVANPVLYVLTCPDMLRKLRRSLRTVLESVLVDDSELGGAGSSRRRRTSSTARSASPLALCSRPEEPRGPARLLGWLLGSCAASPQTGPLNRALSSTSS
# Experiment: biochemical
# Conditions: Ki (nM), Table A; Radioligand Binding Assay A, [3H]PGD2, HEK-hCRTH2 membranes
row,SMILES,Ki [nM]
1,"O=C(O)CCC(=O)N(C1CC1)C1c2ccccc2N(C(=O)c2ccc(-c3cncs3)cc2)C2CCCC21 (racemic) [18o, 4-[cyclopropyl[cis,cis-2,3,3a,4,9,9a-hexahydro-4-[4-(5-thiazolyl)benzoyl]-1H-cyclopenta[b]quinolin-9-yl]amino]-4-oxobutanoic acid]",5.1 to 20
2,"CCN(C(=O)CCC(=O)O)C1c2ccccc2N(C(=O)C2CC2c2ccccc2)C2CCC12 (racemic) [compound 98, 4-(ethyl(cis, cis-3-(2-phenylcyclopropanecarbonyl)-1,2,2a,3,8,8a-hexahydrocyclobuta[b]quinolin-8-yl)amino)-4-oxobutanoic acid]",5.1 to 20
3,"O=C(O)CCC(=O)N(C1CC1)[C@H]1c2cc(F)ccc2N(C(=O)c2ccc(SC(F)(F)F)cc2)[C@H]2CCC[C@H]21 (single isomer, unassigned) [compound 166]",5.1 to 20
4,"O=C(O)CCC(=O)N(C1CC1)C1c2ccc(Cl)cc2N(C(=O)c2cccc(OC(F)(F)F)c2)C2CCC21 (single isomer, unassigned) [27i, 4-[[cis, cis-5-chloro-1,2,2a,3,8,8a-hexahydro-3-[3-(trifluoromethoxy)benzoyl]cyclobuta[b]quinolin-8-yl]cyclopropylamino]-4-oxobutanoic acid]",201 to 7500
5,"C[C@@H](OC(=O)N1c2cc(F)ccc2C(N(C(=O)CCC(=O)O)C2CC2)C2CCCC21)c1ccccc1 (single isomer, unassigned) [compound 145]",5.1 to 20
6,"O=C(O)COC(=O)N(C1CC1)C1c2ccccc2N(C(=O)c2ccc3ccccc3c2)C2CCCC21 (single isomer, unassigned) [32Q, [[[cyclopropyl[cis, cis-2,3,3a,4,9,9a-hexahydro-4-(2-naphthalenylcarbonyl)-1H-cyclopenta[b]quinolin-9-yl]amino]carbonyl]oxy]acetic acid]",1 to 5
7,"O=C(O)CCC(=O)N(CC1CC1)C1c2ccccc2N(C(=O)c2ccccc2)C2CCCC12 (racemic) [17G, 4-[[cis,cis-4-benzoyl-2,3,3a,4,9,9a-hexahydro-1H-cyclopenta[b]quinolin-9-yl](cyclopropylmethyl)amino]-4-oxobutanoic acid]",5.1 to 20
8,"O=C(O)CCCN(C1CC1)C1c2ccc(F)cc2N(C(=O)c2ccc(OC(F)(F)F)cc2)C2CCC21 (single isomer, unassigned) [44D, 4-(cyclopropyl(cis, cis-5-fluoro-3-(4-(trifluoromethoxy)benzoyl)-1,2,2a,3,8,8a-hexahydrocyclobuta[b]quinolin-8-yl)amino)butanoic acid]",1 to 5
9,"C[C@@H](OC(=O)N1c2cc(F)ccc2C(N(C(=O)CCC(=O)O)C2CC2)C2CCCC21)c1ccc(F)cc1 (stereo partly drawn) [compound 147, 4-[1(R)-(4-fluorophenyl)ethyl] cis, cis-[(3-carboxy-1-oxopropyl)cyclopropylamino]-6-fluoro-1,2,3,3a,9,9a-hexahydro-4H-cyclopenta[b]quinoline-4-carboxylate]",5.1 to 20
10,"O=C(O)CCC(=O)N(C1CC1)C1c2ccccc2N(C(=O)c2cccs2)C2CCCC21 (racemic) [17AR, 4-(cyclopropyl(cis,cis-4-(thiophene-2-carbonyl)-2,3,3a,4,9,9a-hexahydro-1H-cyclopenta[b]quinolin-9-yl)amino)-4-oxobutanoic acid]",5.1 to 20
11,"O=C(O)CCC(=O)N(C1CC1)C1c2cc(Cl)c(Cl)cc2N(C(=O)OCc2ccccc2)C2CCC21 (single isomer, unassigned) [compound 120, 3-(phenylmethyl) cis,cis-8-[(3-carboxy-1-oxopropyl)cyclopropylamino]-5,6-dichloro-2,2a,8,8a-tetrahydrocyclobuta[b] quinoline-3(1H)-carboxylate]",201 to 7500
12,"O=C(O)COC(=O)N(C1CC1)C1c2ccccc2N(C(=O)c2ccc(F)c(F)c2)C2CCCC21 (single isomer, unassigned) [32P, [[[cyclopropyl[cis ,cis-4-(3,4-difluorobenzoyl)-2,3,3a,4,9,9a-hexahydro-1H-cyclopenta[b]quinolin-9-yl]amino]carbonyl]oxy]acetic acid]",5.1 to 20
13,"O=C(c1ccc(OC(F)(F)F)cc1)N1c2ccccc2[C@@H](N(C(=O)CCc2nnn[nH]2)C2CC2)[C@H]2CCC[C@H]21 (racemic) [compound 42, N-Cyclopropyl-N-[cis,cis-2,3,3a,4,9,9a-hexahydro-4-[4-(trifluoromethoxy)benzoyl]-1H-cyclopenta[b]quinolin-9-yl]-2H-tetrazole-5-propanamide]",20.1 to 200
14,"O=C(O)COC(=O)N(C1CC1)C1c2ccccc2N(C(=O)c2ccc(OC(F)(F)F)cc2)C2CCC21 (single isomer, unassigned) [32H, [[[cyclopropyl[cis,cis-1,2,2a,3,8,8a-hexahydro-3-[4-(trifluoromethoxy)benzoyl]cyclobuta[b]quinolin-8-yl]amino]carbonyl]oxy]acetic acid]",1 to 5
15,"O=C(O)CCC(=O)N(C1CC1)C1c2ccccc2N(C(=O)c2cccc(-c3ncccn3)c2)C2CCCC21 (racemic) [18E, 4-[cyclopropyl[cis,cis-2,3,3a,4,9,9a-hexahydro-4-[3-(2-pyrimidinyl)benzoyl]-1H-cyclopenta[b]quinolin-9-yl]amino]-4-oxobutanoic acid]",5.1 to 20
16,"CCOc1ncc(-c2cccc(C(=O)N3c4ccccc4C(N(C(=O)CCC(=O)O)C4CC4)C4CCCC43)c2)cn1 (racemic) [18H, 4-[cyclopropyl[cis,cis-4-[3-(2-ethoxy-5-pyrimidinyl)benzoyl]-2,3,3a,4,9,9a-hexahydro-1H-cyclopenta[b]quinolin-9-yl]amino]-4-oxobutanoic acid]",20.1 to 200
17,"CCN(C(=O)CCC(=O)O)C1c2ccccc2N(C(=O)c2ccc(F)cc2)C2CCC12 (single isomer, unassigned) [compound 82, 4-(ethyl(cis, cis-3-(4-fluorobenzoyl)-1,2,2a,3,8,8a-hexahydrocyclobuta[b]quinolin-8-yl)amino)-4-oxobutanoic acid]",5.1 to 20
18,"CN(CC(=O)O)C(=O)N(C1CC1)C1c2ccccc2N(C(=O)c2ccccc2)C2CCCC21 (racemic) [35D, N-[[[cis,cis-4-benzoyl-2,3,3a,4,9,9a-hexahydro-1H-cyclopenta[b]quinolin-9-yl]cyclopropylamino]carbonyl]-N-methylglycine]",5.1 to 20
19,"O=C(O)CCC(=O)N(CC1CC1)C1c2ccccc2N(C(=O)c2ccc(OC(F)(F)F)cc2)C2CCCC12 (racemic) [17L, 4-[(cyclopropylmethyl)[cis,cis-2,3,3a,4,9,9a-hexahydro-4-[4-(trifluoromethoxy)benzoyl]-1H-cyclopenta[b]quinolin-9-yl]amino]-4-oxobutanoic acid]",5.1 to 20
20,"O=C(O)CCC(=O)N(C1CC1)C1c2ccccc2N(C(=O)c2cccc(F)c2)C2CCCC21 (single isomer, unassigned) [17BW, 4-[cyclopropyl[cis,cis-4-(3-fluorobenzoyl)-2,3,3a,4,9,9a-hexahydro-1H-cyclopenta[b]quinolin-9-yl]amino]-4-oxobutanoic acid]",5.1 to 20
21,CN(C(=O)CCC(=O)O)C1c2ccccc2N(C(=O)c2ccc(Cl)c(Cl)c2)C2CCCC12 (racemic) [17Z],20.1 to 200
22,COC(=O)CCC(=O)N(C)C1c2ccccc2N(C(=O)c2ccc(OC(F)(F)F)cc2)C2CCCC12 (racemic) [17R],201 to 7500
23,"O=C(O)COC(=O)N(C1CC1)C1c2cc(F)c(Cl)cc2N(C(=O)c2ccc(OC(F)(F)F)cc2)C2CCCC21 (single isomer, unassigned) [17BZ, [[[[cis,cis-6-chloro-7-fluoro-2,3,3a,4,9,9a-hexahydro-4-[4-(trifluoromethoxy)benzoyl]-1H-cyclopenta[b]quinolin-9-yl]cyclopropylamino]carbon-yl]oxy]acetic acid]",201 to 7500
24,"[2H]C1(N(CCCC(=O)O)C2CC2)c2ccccc2N(C(=O)OCc2ccccc2)C2CCC21 (single isomer, unassigned) [compound 124, 3-(phenylmethyl) deuterated-cis,cis-8-[(3-carboxypropyl)cyclopropylamino]-2,2a,8,8a-tetrahydrocyclobuta[b] quinoline-3(1H)-carboxylate-(8D)]",5.1 to 20
25,"CCN(C(=O)[C@H](C)CC(=O)O)C1c2ccccc2N(C(=O)OCc2ccccc2)C2CCC12 (single isomer, unassigned) [compound 109]",20.1 to 200
26,"CCc1ccc(C(=O)N2c3ccccc3C(N(CC)C(=O)CCC(=O)O)C3CCCC32)cc1 (single isomer, unassigned) [17AE, 4-[ethyl[cis,cis-4-(4-ethylbenzoyl)-2,3,3a,4,9,9a-hexahydro-1H-cyclopenta[b]quinolin-9-yl]amino]-4-oxobutanoic acid]",201 to 7500
27,"O=C(O)[C@H]1CCN1C(=O)N(C1CC1)[C@H]1c2cc(F)ccc2N(C(=O)OCc2ccccc2)[C@H]2CCC[C@H]21 [compound 133, 4-(phenylmethyl) (3aS,9R,9aR)-[[[2(R)-carboxy-1-azetidinyl]carbonyl]cyclopropylamino]-7-fluoro-1,2,3,3a,9,9a-hexahydro-4H-cyclopenta[b]quinoline-4-carboxylale]",5.1 to 20
28,"CCc1ccc(C(=O)N2c3cc(F)ccc3C(N(C(=O)CCC(=O)O)C3CC3)C3CCC32)cc1 (single isomer, unassigned) [17CD, 4-[cyclopropyl[cis,cis-3-(4-ethylbenzoyl)-5-fluoro-1,2,2a,3,8,8a-hexahydrocyclobuta[b]quino-lin-8-yl]amino]-4-oxobutanoic acid]",1 to 5
29,"O=C(O)CCC(=O)N(C1CC1)C1c2ccccc2N(C(=O)Nc2ccccc2OC(F)(F)F)C2CCCC21 (racemic) [23i, 4-[cyclopropyl[cis,cis-2,3,3a,4,9,9a-hexahydro-4-[[[2-(trifluoromethoxy)phenyl]amino]carbonyl]-1H-cyclopenta[b]quinolin-9-yl]amino]-4-oxobutanoic acid]",201 to 7500
